According to the supplement of paper PMC3334620:
The full ranking holds about 33,000 sequences; the median of “E-score (-0.5 to 0.5)” is about -0.054, and the highest 2% start at about 0.39. This is one part of the list.

Target: Ylr278c (UniProt Q05854)
Assay: PBM E-score (8-mer binding enrichment) (E-score (-0.5 to 0.5)); higher = stronger / more preferred TF binding; most listed sequences are background and not binding sites
Conditions: protein concentration: 200 nM; construct: GST-DNA-binding domain
Experimental: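 Universal 'all 10-mer' protein binding microarrays (Agilent AMADID 015681) probed with GST-tagged S. cerevisiae TFs (full-length or DBD) made by in vitro transcription/translation (PURExpress), about 100-200 nM. Bound TF was detected with fluorescent anti-GST. Each ungapped 8-mer (which stands for itself and its reverse complement) is scored by the PBM enrichment score (E-score), a modified Wilcoxon-Mann-Whitney statistic from -0.5 to +0.5, computed with the Universal PBM Analysis Suite. Scale: above 0.35 generally sequence-specific binding.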

| Sequence | PBM E-score |
| --- | --- |
| AAGGAAAA | -0.0186 |
| CCAGTATC | -0.0393 |
| AAGGCGGC | 0.0194 |
| AGGGCAAT | 0.0285 |
| AACTTAAT | 0.0755 |
| ACATAGTA | -0.226 |
| AACATATG | -0.115 |
| AGGGTAAA | -0.0838 |
| CCAATCAA | 0.0292 |
| CTATGCGA | -0.165 |
| CCTTGAGA | -0.123 |
| ACCAGATC | -0.0417 |
| CATGACCA | -0.318 |
| ATAATCAT | -0.0336 |
| CCCGTGCG | 0.182 |
| GGCTAGCA | -0.0267 |
| ATCGAACG | -0.0875 |
| AAATATGA | -0.0874 |
| ATGACGCC | -0.141 |
| ACCTACCT | 0.0257 |
| ACATCTGC | -0.197 |
| GGTGTCGA | -0.192 |
| CTGAGGAC | 0.0445 |
| AGAACAGG | -0.0371 |
| CATAATCC | -0.017 |

| Sequence | PBM E-score |
| --- | --- |
| TTGTTAAA | 0.00886 |
| GCGCAGTA | 0.0804 |
| GATCGTCC | 0.0365 |
| ACTACGTC | -0.0801 |
| CTTGCCCC | -0.0221 |
| GAATGGGA | -0.0214 |
| ATATCTTC | 0.125 |
| CACGGTTC | -0.233 |
| CCGAATTA | 0.256 |
| AAGCACCC | -0.161 |
| AAGCCTCT | -0.36 |
| AAGGTGAG | -0.106 |
| AAGCTGCA | -0.196 |
| CAAATTGA | -0.128 |
| TACGAACA | -0.171 |
| CAACCTCA | -0.251 |
| CGGAAGAA | 0.36 |
| CTACTGCC | -0.168 |
| GCCCTTGA | -0.2 |
| CCCGCAAC | 0.24 |
| TAGATGAA | -0.0861 |
| ACGCTAGT | -0.0423 |
| CGGTGGCC | 0.161 |
| AAAAACTG | -0.147 |
| CGGCAGGA | 0.182 |

| Sequence | PBM E-score |
| --- | --- |
| GAGGCTAA | 0.0333 |
| GAGGTGCC | 0.104 |
| GGGAATGA | 0.152 |
| GCCACTTA | -0.127 |
| TACGACTA | -0.202 |
| ATCTATTG | -0.0701 |
| AGACGCGG | 0.205 |
| CCCCACTA | -0.0146 |
| CAGCATAC | -0.217 |
| CAGAGCTC | -0.034 |
| GCGCGACA | 0.263 |
| GCACCAAC | 0.102 |
| GAGTTACC | 0.0153 |
| ACGGTTCA | -0.11 |
| ACGGGCTC | -0.00295 |
| AGGCACAA | -0.0607 |
| AGAGATCT | -0.228 |
| GAACCGTC | -0.016 |
| GATGTTCA | -0.0894 |
| GACGGTCC | 0.137 |
| ACAAGTTG | 0.0314 |
| AACAAACA | 0.0134 |
| AAATTTAG | 0.07 |
| GCCAACGA | -0.181 |
| CCGGAGCG | 0.458 |

| Sequence | PBM E-score |
| --- | --- |
| CAACGGGC | 0.104 |
| CCTGCGTC | -0.0875 |
| CTGTTATA | -0.159 |
| ACGACGAG | -0.342 |
| AAGCTATT | -0.149 |
| GATTGTAA | -0.0147 |
| AAACGGAG | 0.356 |
| CAACTTAG | 0.0176 |
| CTACGCCA | -0.217 |
| CCGAAGTC | 0.276 |
| GCACACCC | -0.231 |
| ACTACGCT | -0.0389 |
| TGCATCCA | -0.0927 |
| TCAGGGCA | -0.256 |
| TCTGTTAA | -0.204 |
| AAACCCCT | -0.0292 |
| ATTAGAAC | 0.18 |
| ACATGAGA | -0.00545 |
| AGCACGCA | -0.286 |
| GGTAAGCA | -0.102 |
| ACGGGTTG | -0.138 |
| ATGGGCGC | 0.0118 |
| AATCTGAG | -0.171 |
| CTTTAAAA | 0.0433 |
| GTGCCCAA | -0.104 |

| Sequence | PBM E-score |
| --- | --- |
| GAGTATAC | 0.00253 |
| CAATACGA | -0.0571 |
| ACGGTCTG | -0.182 |
| CAGCTACA | -0.138 |
| GCCTTGCC | 0.0699 |
| GACTAAGC | 0.0881 |
| CGTTAATA | 0.0801 |
| ATTAAGTA | 0.0373 |
| GGGACAAC | -0.104 |
| CGGTTAGC | 0.0365 |
| TATGACAA | -0.122 |
| CAATCAGG | -0.166 |
| GCCGGCCC | 0.248 |
| CAAGCTTA | 0.0597 |
| GACTGTCC | 0.00299 |
| GGGAAAAC | 0.132 |
| ACCATTCG | -0.145 |
| CGTAAGTC | 0.0349 |
| ATTGCAAA | 0.0864 |
| ATTTGTTG | 0.0269 |
| ACTAGTCT | -0.3 |
| AATGGAGA | 0.0569 |
| AGGCAAAG | -0.262 |
| CGGTAGGA | 0.0643 |
| GACCCTGC | 0.0498 |

| Sequence | PBM E-score |
| --- | --- |
| AGGGATAA | -0.283 |
| GCCGCCGA | 0.338 |
| ATTCACGA | -0.102 |
| GCACCGGC | 0.264 |
| TACAAGTA | -0.244 |
| ATCCTACG | -0.112 |
| CGTGCCGA | 0.248 |
| AGGGCGTA | -0.128 |
| ATCTACAT | 0.0143 |
| GGGTACGA | -0.152 |
| CCCACTTC | 0.0368 |
| ATATCCAG | -0.15 |
| ATAATCCA | 0.00051 |
| ATAGGGAG | -0.265 |
| CCGGTCGA | 0.319 |
| AAACATAA | -0.251 |
| TAAACATA | -0.118 |
| AAGATAAT | 0.00135 |
| GCGGTCAA | 0.198 |
| CCGCGGTC | 0.268 |
| GCCCTAGC | -0.184 |
| CATATTTA | -0.0147 |
| TCACGTCA | -0.117 |
| TTTGCAAA | -0.106 |
| GTCTAGCA | -0.128 |

| Sequence | PBM E-score |
| --- | --- |
| AGTGGGGC | -0.117 |
| GAAGTGCA | -0.107 |
| TAAAGTGA | -0.0428 |
| ACGGTAAA | 0.0145 |
| ACTCCAAG | -0.198 |
| GAGTTGCC | 0.129 |
| ACCCTTGA | -0.00215 |
| ACAATGCG | 0.0377 |
| ACAGTGTA | -0.147 |
| AACTGTCA | -0.12 |
| ACCTGCAG | -0.3 |
| AGTTGCGA | -0.123 |
| CATCTCGC | -0.0349 |
| AGCTAGTC | -0.0734 |
| CCCTCGAG | -0.266 |
| CCTATGAG | -0.291 |
| AAGACGTC | -0.202 |
| AGATGACG | -0.223 |
| AGAGCGAC | -0.194 |
| AAAAACGC | 0.0626 |
| GGTGCTCA | -0.18 |
| AATCTAGA | -0.329 |
| CGGACCGC | 0.392 |
| AGAAGCAC | -0.13 |
| ATCTAACG | 0.0888 |

| Sequence | PBM E-score |
| --- | --- |
| AGTAGGAC | -0.0502 |
| TGCCACCA | -0.28 |
| ACGTTAAG | -0.152 |
| ACTGATAG | -0.203 |
| ACCTAAGC | 0.0293 |
| CGGATACC | 0.295 |
| AGATCAGA | -0.338 |
| CGTTCTCC | 0.231 |
| ACGTCCAC | -0.172 |
| GAACCAAA | -0.187 |
| AGCATAAA | 0.0832 |
| AAAGGTAT | 0.0581 |
| AGCAGTCG | -0.0461 |
| ACCGAAAT | 0.223 |
| AGCCACCC | -0.0671 |
| CAACTAAG | -0.0852 |
| GCTGCGCC | -0.0608 |
| TTACGTAA | -0.407 |
| AGCCCTTC | -0.241 |
| CAGCTGCA | -0.0112 |
| CAAGTCTC | -0.302 |
| AGCCGACT | 0.0892 |
| TCTGGGCA | 0.101 |
| ACAAACAG | -0.0638 |
| GATAAGAA | -0.0109 |

| Sequence | PBM E-score |
| --- | --- |
| TGAAGACA | -0.137 |
| CGCGCCGA | 0.303 |
| CCCGGCCA | 0.267 |
| CGAGCATC | 0.0603 |
| AGCCGTAC | -0.0213 |
| AGAACGAA | -0.0218 |
| CGATAGTA | 0.0399 |
| CTGTTTGC | -0.121 |
| CTACATGA | -0.162 |
| CGATTGAA | 0.00725 |
| AGGCCACG | -0.0792 |
| TAGCGCGA | 0.074 |
| AGAAGGAA | -0.147 |
| ACGTGTTA | 0.0203 |
| AGCGTTAA | -0.0183 |
| AGATAGCA | -0.0546 |
| CTAGGCGA | -0.043 |
| GACTTTAC | 0.0435 |
| ATTGTTCA | -0.111 |
